Results: PubChem BioAssay AID1508624 (National Center for Advancing Translational Sciences (NCATS), 2021)
The campaign covered roughly 48,000 compounds. About 120 (0.25%) were called active. Not shown: some 4% with an inconclusive outcome. The call rests on the fitted dose curve; in most records, active means well fitted activation curve with a large enough effect; inconclusive means small, poorly fitted or top-dose-only effect, or another doubt; inactive means no such curve, though single readings can be large or run the other way. Some of the results follow.

experiment: Primary qHTS for Identification of Small Molecule Activators of Huntingtin-Antisense Promoter Activity; conditions: HEK293 HTT-AS promoter firefly luciferase reporter, 24 h; series mostly up to 57.5 µM; activity change, positive = activation: at the top concentration; further: nearly all actives have a fitted effect of over 55% in size
Summary of the method: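 Quantitative HTS used concentration series of up to 57.5 uM final on HEK293 luciferase reporter cells, 24 h at 37 degrees C. Readout was Dual-Glo firefly luminescence.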

Activity change, positive = activation, inactive:
COc1cccc(OC)c1C(=O)Nc1cccc(-c2nc3cc(C)cc(C)c3o2)c1 -4.63%
COc1ccc(NC(=O)c2noc3c2CSc2ccccc2-3)cc1Cl 7.34%
O=C(Cn1nc(Cc2cccnc2)c2ccccc2c1=O)Nc1cccc(C(F)(F)F)c1 -38.5%
Cc1ccc(NC(=O)Cn2c(C)cc(C)c(C#N)c2=O)cc1F 9.34%
Cc1cc(C)c(/C=C/c2onc(C)c2S(=O)(=O)N2CCC(C(=O)N3CCN(c4ccc(Cl)cc4)CC3)CC2)c(C)c1 15%
Cc1ccc(C(=O)Nc2nc3n(n2)C(c2ccccc2)C=C(c2ccccc2)N3)cc1 (stereo unspecified) -10.5%
NC(=O)OCC(COC(N)=O)c1ccccc1
CC1CCc2onc(C(=O)N3CCN(c4cccc(C(F)(F)F)c4)CC3)c2C1 (stereo unspecified) -28.4%
COc1ccc(-c2nc3ccccc3s2)cc1NC(=O)c1cc2ccccc2o1 10.1% [at 11.5 µM, percent change from vehicle, -100% = no light]
Cc1ccc(NC(=O)CCNS(=O)(=O)c2cccc3nsnc23)cc1 -7.14%
CN(CC(=O)Nc1ccc(F)cc1F)S(=O)(=O)c1ccc(C(=O)N2CCOCC2)s1 -9.6%
CCCCc1ccc(NC(=O)COc2cccc3c(=O)n(C)ccc23)cc1 -42.4%
CCOC(=O)c1c(C)c(-c2ccccc2)n(CC(=O)NCCc2ccc(C)cc2)c1C -5.1%
Cc1ccc2nc(CSc3nnc(NC(=O)COc4ccccc4)s3)cc(=O)n2c1 0.0174%
Cc1ccc(NC(=O)N2CCC(CN3CCC(C)CC3)CC2)cc1F 14.4%
COc1ccc(-c2cc(C(F)(F)F)nc(SCC(=O)NCCc3ccc(OC)c(OC)c3)n2)cc1 -7.19%
CCCc1cc(=O)n2[nH]c(-c3ccc(C)cc3)nc2n1 10.4%
Cc1ccc(NC(=O)C2CCCN(c3nnc(-n4c(C)ccc4C)s3)C2)cc1Cl (stereo unspecified) 2.57%
COc1cccc(CNC(=O)C(NS(=O)(=O)c2ccc3nc(C)sc3c2)C(C)C)c1 (stereo unspecified) -10.5%
Cc1ccc(C(CC(=O)Nc2cc(C)cc(C)c2)N2Cc3ccccc3C2=O)cc1 (stereo unspecified) -45.8%
Cc1cccc(NC(=O)CSc2nnc(C)c(=O)[nH]2)c1 -10.4%
CCS(=O)(=O)NCC(c1ccco1)N1CCN(c2ccc(OC)cc2)CC1 (stereo unspecified) -12.9%
Cc1ccccc1CN1c2ccccc2-c2nc(SCC(=O)NCCc3ccccc3)ncc2S1(=O)=O 16.3%
CCN(CC)c1ccc(-n2nc3cc(C)c(NC(=O)c4ccccc4F)cc3n2)cc1 13.2% [at 11.5 µM, percent change from vehicle, -100% = no light]
COc1ccc(S(=O)(=O)N(C)Cc2nc(-c3cccc(C)c3)no2)cc1 -25.5%
O=C(CSc1nc2ccsc2c(=O)n1Cc1ccccc1F)NCc1ccccc1 -26.8%
CCc1ccc(NC(=O)CN2C(=O)C(c3ccccc3)=NC23CCCCCC3)cc1 -40.9%
CCc1ccc(NC(=O)N(Cc2ccc(C)cc2)Cc2cccn2-c2nnc(N3CCCC3=O)s2)cc1 -2.66%
O=C(Nc1cccc(C(F)(F)F)c1)C1CCCN(S(=O)(=O)c2cccc3nsnc23)C1 (stereo unspecified) -39.2%
Cc1ccc2c(CC(=O)N3CCN(c4cccc(Cl)c4)CC3)coc2c1 -7.78%
CCCCNc1ccc(-c2nc(-c3ccccc3)no2)cc1[N+](=O)[O-] 16.4%
CSc1ncc(Cl)c(C(=O)NCc2ccc(C)cc2)n1 6.17%
O=S(=O)(Nc1ccc(F)c(C(F)(F)F)c1)c1ccc(N2CCCCS2(=O)=O)cc1 -63.2%
COc1ccc(OC)c(CNS(=O)(=O)c2c(C(=O)N3CCC(C)CC3)c(C)n(C)c2C)c1 -5.82%
Cc1cc(C)cc(NC(=O)Cn2nnc(C(=O)NCCc3ccccc3)c2N)c1 -19%
CCOc1ccc(C(=O)NCCc2sc(-c3ccc(C)cc3)nc2C)cc1 -2.94%
COc1cc(Nc2nc(SCc3ccccc3F)nc3ccccc23)cc(OC)c1 -32.3%
CCOc1ccccc1NC(=O)CSc1c(C)cnc2c1c(=O)n(C)c(=O)n2C -14.7%
Cc1ccc(CCNC(=O)c2ccc(CS(=O)(=O)c3ccc(Br)cc3)o2)cc1 -13.2%
Cc1cccc(NC(c2cccc(F)c2)c2ccc3ccc(C)nc3c2O)n1 (stereo unspecified) -14.1%
Cc1ccc(CCNC(=O)c2cc3c(s2)-c2ccccc2OC3)cc1 -34.3%
NCCNCCNCCN 0.926%
CCCn1c(=N)c(C(=O)NC2CCCC2)cc2c(=O)n3cc(C)ccc3nc21 -0.456%
c1ccc(-c2cc(-c3ccccc3)c3c(n2)-c2ccccc2OC3)cc1 -10.6%
Cc1nc2ccc(S(=O)(=O)NC(C(=O)NCc3ccccc3Cl)C(C)C)cc2s1 (stereo unspecified) -10.6%
CC1CCN(S(=O)(=O)c2ccc3c(c2)N(CC(=O)NCc2ccccc2Cl)C(=O)CS3)CC1 -39.2%
COc1ccc(C(c2c(C)n(C)n(-c3ccccc3)c2=O)c2c(C)n(C)n(-c3ccccc3)c2=O)cc1O -14.3%
CCOc1cccc2sc(N(Cc3cccnc3)C(=O)c3ccco3)nc12 -10.9%
COc1cc(OC)c(NC(=O)Nc2nnc(N(C)C3CCCCC3)s2)cc1Cl -3.62%
COc1ccc(-c2cc3c(=O)n(CC(=O)Nc4ccccc4C(F)(F)F)ccn3n2)cc1OC 1.91%
CC(=O)c1ccc(NC(=O)CN(C)S(=O)(=O)c2cc3c(cc2C)NC(=O)CO3)cc1 -14.9%
CC1CCN(CC(=O)N2CCCc3c2c(=O)oc2ccc(OCc4ccccc4)cc32)CC1 1.34%
Cc1c(C(=O)Nc2ccc(Br)cc2F)oc2ccc(S(=O)(=O)N3CCCCC3)cc12 -3.62%
CC1(C(=O)Nc2cccc(C(F)(F)F)c2)Cc2ccccc2C(=O)O1 (stereo unspecified) -12.6%
CC1=C(C(=O)Nc2c(C)cc(C)cc2C)C2(CCN(C(C)C)CC2)OC1=O -8.24%
CC1=C(C(=O)Nc2cccc(C)c2C)C2(CCCCC2)OC1=O -4.33%
COc1ccc(CCNC(=O)c2cnc3sc(N4CCCCCC4)nn3c2=O)cc1OC -0.865%
CCOCCCNC(=O)C(c1ccc(OC)cc1)N(Cc1cccs1)C(=O)c1ccccc1O (stereo unspecified) -1.26%
CC(C)CCN1C(=O)N(c2ccccc2)C(=O)C1CC(=O)Nc1ccc(Cl)cc1 (stereo unspecified) -17.2%
COc1ccccc1N1CCN(CCCNC(=O)c2cnn(-c3ccccc3Cl)c2C2CCN(C(=O)OC(C)(C)C)CC2)CC1 -21.6%
CC(C)NC(=O)CSc1nc2ccccc2nc1N1CCCCC1 -23.5%
Cc1ccc(Sc2ccc(N3CCCC(C(=O)Nc4ccc(Cl)cc4)C3)nn2)cc1 (stereo unspecified) -28.6%
CCn1c(SC)nc2c([nH]c3ccccc32)c1=O -2.93%
COc1ccc(CNC(=O)c2ccc3c(c2)N=C(C)c2c(C)ccc(C)c2S3)cc1 -45%
Cc1cc(C)cc(NC(=O)CC(C)n2nc(C)cc2C)c1 (stereo unspecified) -19.1%
CCN(CC)c1ccc(NC(=O)CN2CCN(S(=O)(=O)c3ccc(C(C)C)cc3)CC2)cc1 -35.5%
O=C(Cn1ccc2cc(S(=O)(=O)N3CCCC3)ccc21)NCc1ccc(Cl)cc1 -39.6%
COc1cc(NC(=O)Cn2c(=O)n(Cc3ccccc3)c(=O)c3oc4ccccc4c32)cc(OC)c1 -13.3%
O=C(Nc1ccc(F)cc1)C1CCN(c2nc3ccccc3nc2C(F)(F)F)CC1 12.5%
COc1ccc(-c2noc(CC(=O)N(C)c3ccccc3F)n2)cc1 -4.88%
Cc1nc(N2CCOCC2)c2c(C(=O)N3CCN(c4cc(Cl)ccc4C)CC3)c(C)oc2n1 6%
CCOc1c(CC2C(=O)Nc3ccc(Br)cc32)cccc1OC (stereo unspecified) -42.3%
O=C(CN1C(=O)C2CCCCN2c2ccc(C(=O)N3CCCC3)cc21)NCc1ccc(F)cc1 (stereo unspecified) -12%
CCOc1ccccc1CNc1ncnc2onc(-c3ccc(F)cc3)c12 -25.6%
CCCNC(=O)CN1C(=O)COc2ccc(S(=O)(=O)N3CCCC3)cc21 -6.45%
CCN1CCC(N(Cc2ccc(F)cc2)C(=O)Nc2cc(C)ccc2C)CC1 -12.7%
COc1ccc(-n2cc(C(=O)NCCc3ccc(C)cc3)c3ccccc3c2=O)cc1 -24.3%
CC1CCCCN1C(=O)CSc1nc2ccccc2nc1Cc1ccccc1 (stereo unspecified) -39.5%
COC(=O)c1ccc(C2CC(=O)Nc3c2c(C)nn3-c2nc(C)cc(C)n2)cc1 (stereo unspecified) -14.7%
CCOc1ccc(N2C(=O)c3[nH]nc(-c4ccccc4)c3C2c2ccc(O)c(OC)c2)cc1 (stereo unspecified) -32.8%
O=C(Nc1ccc(S(=O)(=O)Nc2ncccn2)cc1)c1cccc(Cl)c1 0.739%
O=C(NCCN1CCOCC1)c1ccc(Cl)cc1 4.62%
COc1ccc(OC)c(NC(=O)Cn2nc3c(cc2=O)CCCC3)c1 -21.9%
COc1ccc(CCNS(=O)(=O)c2ccc3c(c2)c(=O)n(C)c(=O)n3C)cc1OC 12.6%
Cc1cc(Cl)ccc1OCCCC(=O)NO -34.4%
Cc1ccc(NC(=O)c2nc(S(C)(=O)=O)ncc2N(Cc2cccc(F)c2)Cc2ccco2)cc1C -23.2%
NS(=O)(=O)c1ccc(NC(=O)c2cc(-c3cccs3)nc3ccccc23)cc1 -39%
Cc1ccc(NC(=O)CCCc2nnc3n(C)c(=O)c4sccc4n23)cc1C 2.72%
COc1ccc(NC(=O)C2=C(C)Nc3nc(SCc4ccc(C)cc4C)nn3C2c2cccc(OC)c2OC)cc1 (stereo unspecified) -0.316%
Cc1[nH]c(=O)[nH]c(=O)c1S(=O)(=O)Nc1cccc(Cl)c1C -1.1%
CNC(=O)c1ccc(Nc2cc(Nc3ccccc3S(=O)(=O)C(C)C)c3cc[nH]c3n2)nc1 -37.3%
COc1cc(-c2ccno2)ccc1S(=O)(=O)N1CCN(c2cccc(Cl)c2)CC1 -35.4%
CCOc1ccc(CNC(=O)Cn2nc(C)c3nn(-c4ccc(Cl)cc4)c(C)c3c2=O)cc1 -2.64%
Cc1oc2ncnc(N3CCCCC3)c2c1C(=O)NCC1CCN(Cc2ccccc2F)CC1 -1.47%
Cc1ccc(CNC(=O)c2oc3ccc(S(=O)(=O)N4CCCC(C)C4)cc3c2C)cc1 (stereo unspecified) -26.4%
COc1ccccc1NC(=O)c1sc2nc(-c3cc4cc(Cl)ccc4oc3=O)[nH]c(=O)c2c1C 0.199%
